The values that follow come from PubChem BioAssay (NCI).

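Compound exposure: 48 hours, 5 concentrations, 96-well plates. Abbreviation: GI50, concentration required for 50% inhibition of growth. The concentration for full growth arrest is given as TGI.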

The experiment deals with NCI-H322M lung. In words: growth of human tumour cells (NCI), 48 h.

`COc1cccc2c1C(=O)c1c(O)c3c(c(O)c1C2=O)C[C@@](O)(C(=O)COC(=O)c1ccccc1)C[C@@H]3OC1CC(N)C(O)C(C)O1` (stereo partly specified): the GI50 is 387 nM and the TGI came out at 1.55 µM.
Taken in the same sequence, the figures for `Nc1c(C(=O)c2cccc(C#CCN3CCCCC3)c2)cnn1-c1ccc(F)cc1` were more than 25000 nM and more than 25 µM.
On to `CCSc1ccc([C@@H]2[C@@H](O)C(=O)N2c2cc(OC)c(OC)c(OC)c2)cc1`, for which the GI50 is 80.6 nM and the TGI was more than 100 µM.
The molecule `Cc1ccc(Cl)cc1N=NC(=O)NNc1cc(Cl)ccc1C` displayed a TGI of more than 100 µM.
The same measure, in the same setting: next, `CC1CC2(S(=O)(=O)c3ccccc3)ON1CC2S(=O)(=O)c1ccccc1` (stereo unspecified): more than 100 µM; `COC(=O)c1c(CC(Cc2ccc3c(c2)CCCC3)C(=O)O)ccc2c1CCCC2` (stereo unspecified): more than 100 µM; `c1ccc2c(c1)c1ccccc1n2Cn1c2ccccc2c2ccccc21`: more than 100 µM.
Molecule `O=c1cc(-c2ccccc2)[nH]c2cc(F)cc(F)c12` showed a TGI of more than 100 µM.
On the same count and under the same terms, next, `C=C1C(=O)OC2C1CCC(C)C1(O)C=CC(=O)C21C` (stereo unspecified): more than 10 µM; `Oc1[nH]c2ccccc2c1C1=Nc2ccccc2/C1=N\OCCOC1OCC(O)C(O)C1O` (stereo unspecified): more than 100 µM.
For the molecule `COc1ccc(Nc2nc(Nc3cc(C)[nH]n3)c3cc(OC)c(OC)cc3n2)cc1`, the GI50 is 1010 nM and the TGI was 2.24 µM.
Molecule `Nc1nc2ccc(Sc3ccc4nc(N)[nH]c(=O)c4c3)cc2c(=O)[nH]1` yielded a TGI of more than 100 µM.
In turn, `O=c1nc2ccc([N+](=O)[O-])cc2[n+]([O-])[nH]1` gave a TGI of more than 100 µM.
`COc1ccc(C2=[S+]C(c3ccccc3)(c3ccccc3)c3ccccc32)cc1` displayed a TGI of more than 100 µM.
For `O=c1[nH]nc(Cc2ccccc2)n1/N=C/c1ccco1`, the TGI was more than 100 µM.
On the same count and under the same terms, next, `COC(=O)c1cc(=O)nc2cc3cccccc3n12`: more than 100 µM; `CCCCc1ccc(-n2sc3ncc(-c4ccccc4)cc3c2=O)cc1`: more than 100 µM.
In the case of `COc1cc2c(c3c1c(=O)c1ccccc1n3C)C=CC(C)(C)O2`, the TGI is more than 100 µM.
The same measure, in the same setting: next, `C/C(=N\NC(=O)c1ccc(Cl)cc1)c1nc2ncccc2[nH]1`: more than 100 µM.
`CC(O)c1cc2c(s1)C(=O)c1c(C(C)O)csc1C2=O` (stereo unspecified): the TGI worked out at 0.354 µM.
Take `CCN1[C@@H](C(=O)NC23CCC(C(=O)O)(CC2)CC3)[C@H](c2cccc(Cl)c2F)[C@]2(C(=O)Nc3cc(Cl)ccc32)C12CCCCC2`: the GI50 was 2650 nM and the TGI was 15.9 µM.
Taken in the same sequence, the figures for `C=C(CN1CCc2c([nH]c3ccccc23)C1)c1ccc(C(=O)Nc2ccccc2N)cc1` were 1980 nM and 11.8 µM.
Consider `ClCc1cccc(Cn2cnc3c(Cl)nc(Cl)nc32)c1`, for which the GI50 is 2300 nM and the TGI came out at 5.07 µM.
Taken in the same sequence, the figures for `Clc1ccc(/C=C/c2ccc3ccccc3n2)cc1` were 438 nM and more than 22.5 µM.
On to `Nc1[nH]c(=O)nc2snnc12`, for which the TGI is more than 100 µM.
On to `CC(Oc1ccc(Oc2cnc3ccc(Cl)cc3n2)cc1)C(=O)O` (stereo unspecified), for which the TGI was more than 100 µM.
On the same count and under the same terms, next, `COc1cc(C(=O)Oc2c(C(C)=O)sc3c2c(=O)n(-c2ccccc2)c(=S)n3-c2ccccc2)cc(OC)c1OC`: 53 µM.
Same read-out and setting: next, `O=c1[nH]c(SCc2cccc([N+](=O)[O-])c2)nc2nc[nH]c12`: more than 100 µM; `COC(=O)C(C(=O)C(=O)Nc1ccc(C)cc1C)c1csc(-n2nc(-c3ccccc3)cc2-c2ccccc2)n1` (stereo unspecified): more than 100 µM.
Regarding `O=C1CCC2(c3ccccc3)Nc3ccccc3N12` (stereo unspecified), the TGI is more than 100 µM.
Take `Clc1ccc(-c2cc(-c3cc4cc(Br)ccc4nc3Cl)on2)cc1`: the TGI is more than 50 µM.
The same measure, in the same setting: next, `CC(=O)NC1(NC(C)=O)C2CC(C1Cc1ccccc1)C(C)(C)C2C` (stereo unspecified): more than 100 µM; `CC(=O)c1ccc(NC(=O)C(=O)C(C(=O)/C=C/c2ccccc2)C2OC(=O)c3ccccc32)cc1` (stereo unspecified): more than 100 µM.
For `CC(=O)/C=C/c1ccc(Nc2c3ccccc3nc3occ(Cl)c23)cc1`, the GI50 is 11700 nM and the TGI worked out at 42.1 µM.
`C[C@@H](C[C@H]1OC(C)(C)O[C@@H]1C(C)(C)O)[C@H]1CC=C2[C@]3(C)[C@H](O)C[C@H]4C(C)(C)[C@H](O)CC[C@]4(C)[C@H]3CC[C@]21C` showed a TGI of 21.9 µM.
With `COc1ccc(-c2c(C#N)c(N)nc(N3CCOCC3)c2C#N)cc1`, the GI50 was 18400 nM and the TGI amounted to 85.3 µM.
